Source: PubChem BioAssay (NCATS)
The other results are listed elsewhere or left out. Shown are side measurements of this screen, not its main read-out; they come without a call. For part of these data: Most of these compounds were active or inconclusive in the main read-out, so they are no random draw. Words in brackets tell the shape of the fitted curve; partial curves, single points and poor fits give uncertain potencies.

Experiments:
[1] = qHTS drug screen for cell cycle checkpoint inhibitors in PARPi-resistant BRCA-mutant ovarian cancer cell lines. (AID 1963452); conditions: PEO1/OlaR viability, CellTiter-Glo luminescence, 96 h
Summary of the method: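 PEO1, PEO4 and PEO1/OlaR ovarian cancer cells, 600 per well, exposed 96 h at 37C to a dilution series. Viability read by CellTiter-Glo luminescence, normalized to DMSO and empty wells; activity summarized as Z-AUC.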

[2] = qHTS for identification of novel therapeutic agents for treatment of microphthalmiaassociated transcription factor (MiT) renal cell carcinoma (RCC) (AID 1963991); conditions: CellTiter-Glo, 48 h; for z-score: stronger effect = lower value
Summary of the method: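 Curves over 11 concentrations were fitted to CellTiter-Glo luminescence, scaled between empty wells (0%) and DMSO (100%) viability. Cells were UOK109, UOK124 and UOK145 TFE3-fusion RCC lines at 500/well, exposed 48 hours at 37 C.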

[3] = measured here: PEO1 parental viability
[4] = TFE3-RCC UOK109 viability, measured here: UOK109 Z-AUC
[5] = TFE3-RCC viability, measured here: UOK124 Z-AUC
[6] = TFE3-RCC viability, measured here: UOK124 cell viability
[7] = TFE3-RCC viability, measured here: UOK145 Z-AUC
[8] = TFE3-RCC viability, measured here: UOK145 cell viability
Tags tell the direction and shape of the fitted curve.

CNC(=O)c1cc(Oc2ccc(NC(=O)Nc3cc(C(C)(C)C)nn3-c3ccc4ncccc4c3)c(F)c2)ccn1
AC50 [1, 3]: 17.4 µM [falling, single point] | AC50 ([1]; measured here: PEO4 viability): 27.5 µM [falling, single point] | z-score [2, 4]: -0.373 | z-score [2, 5]: -0.3 | AC50 [2, 6]: 4.69 µM [falling, full curve] | z-score [2, 7]: -1.98 | AC50 [2, 8]: 2.96 µM [falling, full curve]

COc1cc2c(Oc3ccc(NC(=O)C4(C(=O)Nc5ccc(F)cc5)CC4)cc3F)ccnc2cc1OCCCN1CCOCC1
AC50 [1, 3]: 3.47 µM [falling, full curve] | AC50 ([1]; measured here: PEO4 viability): 1.1 µM [falling, full curve] | z-score [2, 4]: -0.638 | z-score [2, 5]: -0.906 | AC50 [2, 6]: 16.6 µM [falling, partial curve] | z-score [2, 7]: -1.82 | AC50 [2, 8]: 7.43 µM [falling, full curve]

NC(=O)c1noc([C@H](CCCC2CCCCC2)CC(=O)NO)n1
AC50 [1, 3]: 27.5 µM [falling, single point] | AC50 ([1]; measured here: PEO4 viability): 27.5 µM [falling, single point] | z-score [2, 4]: 0.307 | z-score [2, 5]: 0.472 | AC50 [2, 6]: 20.9 µM [falling, partial curve] | z-score [2, 7]: 1.29 | AC50 [2, 8]: 16.6 µM [falling, partial curve]

CCc1cc(-c2n[nH]c(C)c2-c2ccc3c(c2)OCCO3)c(O)cc1O
AC50 [1, 3]: 6.92 µM [falling, partial curve] | AC50 ([1]; measured here: PEO4 viability): 15.5 µM [falling, partial curve, poor fit] | z-score [2, 4]: 0.28 | z-score [2, 5]: -2.63 | AC50 [2, 6]: 16.6 µM [falling, partial curve] | z-score [2, 7]: 0.0614 | AC50 [2, 8]: 7.43 µM [falling, full curve]

O=c1cc(N2CCOCC2)oc2c(-c3cccc4c3sc3ccccc34)cccc12
AC50 [1, 3]: 11 µM [falling, partial curve] | AC50 ([1]; measured here: PEO4 viability): 6.92 µM [falling, partial curve] | z-score [2, 4]: -0.84 | z-score [2, 5]: -1.19 | AC50 [2, 6]: 20.9 µM [falling, partial curve] | z-score [2, 7]: -0.112 | AC50 [2, 8]: 14.8 µM [falling, partial curve]

C=CC(=O)N1CCc2ccc(-n3c(=O)ccc4cnc5ccc(-c6cnn(C)c6)cc5c43)cc21
AC50 [1, 3]: 1.9 µM [falling, full curve] | AC50 ([1]; measured here: PEO4 viability): 2.13 µM [falling, full curve] | z-score [2, 4]: 0.313 | z-score [2, 5]: -0.897 | AC50 [2, 6]: 5.26 µM [falling, partial curve] | z-score [2, 7]: 0.00487 | AC50 [2, 8]: 5.9 µM [falling, full curve]

Cc1ccc(S(=O)(=O)Nc2cc(Cl)ccc2C(=O)Nc2nc(-c3ccccc3)cs2)cc1
AC50 [1, 3]: 2.19 µM [falling, full curve] | AC50 ([1]; measured here: PEO4 viability): 1.38 µM [falling, full curve] | z-score [2, 4]: 0.4 | z-score [2, 5]: 0.436 | AC50 [2, 6]: 8.33 µM [falling, full curve] | z-score [2, 7]: -0.0149 | AC50 [2, 8]: 4.69 µM [falling, full curve]

CCN(CC)CCNC(=O)c1ccc2nc(-c3ccccc3)c(-c3ccc(CN4CCC(n5c(=O)[nH]c6ccccc65)CC4)cc3)nc2c1
AC50 [1, 3]: 19.5 µM [falling, single point] | AC50 ([1]; measured here: PEO4 viability): 2.19 µM [falling, full curve] | z-score [2, 4]: -0.0586 | z-score [2, 5]: -1.8 | AC50 [2, 6]: 1.66 µM [falling, full curve] | z-score [2, 7]: -1.4 | AC50 [2, 8]: 3.32 µM [falling, full curve]

c1cncc(CN2CCC(n3ncc4c(N5CCOCC5)nc(-c5ccc6[nH]ccc6c5)nc43)CC2)c1
AC50 [1, 3]: 1.74 µM [falling, full curve, poor fit] | AC50 ([1]; measured here: PEO4 viability): 6.16 µM [falling, partial curve] | z-score [2, 4]: -0.757 | z-score [2, 5]: -2.81 | AC50 [2, 6]: 10.5 µM [falling, partial curve] | z-score [2, 7]: -1.36 | AC50 [2, 8]: 5.26 µM [falling, partial curve]

CC(=O)Nc1ccc([C@H](C)C(=O)Nc2ncc(C(C)C)s2)cc1
AC50 [1, 3]: 1.95 µM [falling, full curve] | AC50 ([1]; measured here: PEO4 viability): 3.47 µM [falling, full curve] | z-score [2, 4]: -0.889 | z-score [2, 5]: -0.577 | AC50 [2, 6]: 5.26 µM [falling, full curve] | z-score [2, 7]: -0.766 | AC50 [2, 8]: 1.87 µM [falling, full curve]

CN(c1ncccc1CNc1nc(Nc2ccc3c(c2)CC(=O)N3)ncc1C(F)(F)F)S(C)(=O)=O
AC50 [1, 3]: 4.9 µM [falling, partial curve] | AC50 ([1]; measured here: PEO4 viability): 5.49 µM [falling, partial curve] | z-score [2, 4]: -0.177 | z-score [2, 5]: -0.0872 | AC50 [2, 6]: 6.62 µM [falling, full curve] | z-score [2, 7]: -0.199 | AC50 [2, 8]: 16.6 µM [falling, partial curve]

Cc1c(C(=O)Nc2ccc(N3C[C@@H](C)O[C@@H](C)C3)nc2)cccc1-c1ccc(OC(F)(F)F)cc1
AC50 [1, 3]: 11 µM [falling, partial curve] | AC50 ([1]; measured here: PEO4 viability): 13.8 µM [falling, partial curve, poor fit] | z-score [2, 4]: -0.103 | z-score [2, 5]: -0.0441 | AC50 [2, 6]: 18.7 µM [falling, partial curve] | z-score [2, 7]: 0.167 | AC50 [2, 8]: 13.2 µM [falling, partial curve]

CCNc1cc(NC2CCC(O)CC2)nc(Nc2ccc3c(ccn3Cc3ccccc3)c2)n1 (stereo not drawn)
AC50 [1, 3]: 12.3 µM [falling, partial curve] | AC50 ([1]; measured here: PEO4 viability): 24.5 µM [falling, partial curve, poor fit] | z-score [2, 4]: -0.0409 | z-score [2, 5]: -0.168 | AC50 [2, 6]: 26.4 µM [falling, partial curve] | z-score [2, 7]: -0.542 | AC50 [2, 8]: 26.4 µM [falling, single point]

Cc1nn(Cc2ccccc2Cl)c(C)c1CN(C)CC(O)COc1ccc(Cl)cc1 (stereo not drawn)
AC50 [1, 3]: 19.5 µM [falling, single point] | AC50 ([1]; measured here: PEO4 viability): 21.9 µM [falling, single point] | z-score [2, 4]: 0.631 | z-score [2, 5]: 0.378 | AC50 [2, 6]: 23.5 µM [falling, partial curve] | z-score [2, 7]: 0.506 | AC50 [2, 8]: 20.9 µM [falling, partial curve, poor fit]

Cc1cnc(Nc2ccc(F)cc2Cl)nc1-c1c[nH]c(C(=O)N[C@H](CO)c2cccc(Cl)c2)c1
AC50 [1, 3]: 7.76 µM [falling, partial curve] | AC50 ([1]; measured here: PEO4 viability): 9.77 µM [falling, partial curve] | z-score [2, 4]: -0.422 | z-score [2, 5]: -1.8 | AC50 [2, 6]: 11.8 µM [falling, partial curve] | z-score [2, 7]: -0.565 | AC50 [2, 8]: 13.2 µM [falling, partial curve]

COc1cccc2nc(-c3cccs3)nc(NN3C(=O)C=C(C)C3=O)c12
AC50 [1, 3]: 0.616 µM [falling, full curve] | AC50 ([1]; measured here: PEO4 viability): 0.549 µM [falling, full curve] | z-score [2, 4]: -0.27 | z-score [2, 5]: -1.07 | AC50 [2, 6]: 2.96 µM [falling, full curve] | z-score [2, 7]: -1.42 | AC50 [2, 8]: 2.64 µM [falling, full curve]

COc1cc2ncn(-c3cc(OCc4ccccc4C(F)(F)F)c(C(N)=O)s3)c2cc1OC
AC50 [1, 3]: 0.549 µM [falling, full curve] | AC50 ([1]; measured here: PEO4 viability): 1.1 µM [falling, full curve] | z-score [2, 4]: -0.656 | z-score [2, 5]: -0.512 | AC50 [2, 6]: 2.64 µM [falling, full curve] | z-score [2, 7]: -0.689 | AC50 [2, 8]: 4.18 µM [falling, partial curve]

CC(C)C(=O)Nc1ncc(-c2cc(C(F)F)nn2-c2c(Cl)cccc2Cl)s1
AC50 [1, 3]: 24.5 µM [falling, single point] | AC50 ([1]; measured here: PEO4 viability): 24.5 µM [falling, single point] | z-score [2, 4]: -0.158 | z-score [2, 5]: -0.264 | AC50 [2, 6]: 18.7 µM [falling, partial curve] | z-score [2, 7]: -0.442 | AC50 [2, 8]: 33.2 µM [falling, single point]

CN(CC(=O)N(Cc1ccc(C2CCCCC2)cc1)c1ccc(C(=O)O)c(O)c1)S(=O)(=O)c1c(F)c(F)c(F)c(F)c1F
AC50 [1, 3]: 27.5 µM [falling, single point] | AC50 ([1]; measured here: PEO4 viability): 24.5 µM [falling, single point] | z-score [2, 4]: 0.184 | z-score [2, 5]: 0.0603 | AC50 [2, 6]: 18.7 µM [falling, partial curve] | z-score [2, 7]: 0.479 | AC50 [2, 8]: 29.6 µM [falling, single point]

CCC(C)SSc1ncc[nH]1 (stereo not drawn)
AC50 [1, 3]: 24.5 µM [falling, single point] | AC50 ([1]; measured here: PEO4 viability): 21.9 µM [falling, single point] | z-score [2, 4]: 0.457 | z-score [2, 5]: 0.151 | AC50 [2, 6]: 23.5 µM [falling, single point] | z-score [2, 7]: 0.208 | AC50 [2, 8]: 37.2 µM [falling, single point]

Oc1ccc(-c2ccc(-c3cc(Nc4cccc(CNC5CC5)c4)n[nH]3)cc2)c(O)c1
AC50 [1, 3]: 8.71 µM [falling, partial curve] | AC50 ([1]; measured here: PEO4 viability): 7.76 µM [falling, partial curve, poor fit] | z-score [2, 4]: -0.553 | z-score [2, 5]: -1.38 | AC50 [2, 6]: 13.2 µM [falling, partial curve] | z-score [2, 7]: 0.506 | AC50 [2, 8]: 11.8 µM [falling, partial curve]

Cc1nc2ccc(CN(C)c3ccc(C(=O)N[C@@H](CCC(=O)O)C(=O)O)s3)cc2c(=O)[nH]1
AC50 [1, 3]: 0.0389 µM [falling, full curve] | AC50 ([1]; measured here: PEO4 viability): 0.0347 µM [falling, full curve, poor fit] | z-score [2, 4]: 0.108 | z-score [2, 5]: -1.7 | AC50 [2, 6]: 0.0833 µM [falling, full curve] | z-score [2, 7]: -1.19 | AC50 [2, 8]: 0.0743 µM [falling, full curve]

COc1ccc2nc3cc(Cl)ccc3c(Nc3cc(CN4CCCC4)c(O)c(CN4CCCC4)c3)c2n1
AC50 [1, 3]: 24.5 µM [falling, single point] | AC50 ([1]; measured here: PEO4 viability): 27.5 µM [falling, single point] | z-score [2, 4]: 0.317 | z-score [2, 5]: 0.657 | AC50 [2, 6]: 20.9 µM [falling, partial curve] | z-score [2, 7]: 0.491 | AC50 [2, 8]: 20.9 µM [falling, partial curve]

O=C(Nc1nnc(-c2ccco2)o1)c1cc(-c2ccccc2)nc2ccccc12
AC50 [1, 3]: 6.16 µM [falling, partial curve, poor fit] | AC50 ([1]; measured here: PEO4 viability): 3.47 µM [falling, full curve, poor fit] | z-score [2, 4]: 0.273 | z-score [2, 5]: 0.214 | AC50 [2, 6]: 16.6 µM [falling, partial curve] | z-score [2, 7]: 0.642 | AC50 [2, 8]: 20.9 µM [falling, single point]
